Reference: the supplement of paper PMC8728848
The list shows a part of the results.

How the values were obtained:
Test in all cases: glycan array binding signal (z-score within array); higher = stronger binding
Conditions in all cases: glycan notation: IUPAC condensed, linker removed
[1] = molecular target: Fuc(a1-2)Gal(b1-4)GlcNAc(b1-3)Gal(b1-4)GlcNAc(b1-3)Gal(b1-4)GlcNAc
Outline: (§1)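 Glycan array binding is given as a within-array Z-score, which can be read as non-binding when negative. The arrays, 3228 of them, came from the Consortium for Functional Glycomics database and were retained only where the protein sequence was available. Z-scores were averaged across arrays of the same protein sequence at different concentrations or buffers and across linkers.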

[2] = molecular target: Fuc(a1-2)Gal(b1-4)GlcNAc(b1-3)GalNAc
Outline: as §1

[3] = molecular target: Fuc(a1-2)Gal(b1-4)GlcNAc(b1-3)[Fuc(a1-2)Gal(b1-4)GlcNAc(b1-6)]GalNAc
Outline: as §1

[4] = molecular target: Fuc(a1-2)Gal(b1-4)GlcNAc(b1-3)[Fuc(a1-3)[Gal(b1-4)]GlcNAc(b1-6)]Gal(b1-4)Glc
Outline: as §1

[5] = molecular target: Fuc(a1-2)Gal(b1-4)GlcNAc(b1-6)GalNAc
Outline: as §1

[6] = molecular target: Fuc(a1-2)Gal(b1-4)GlcNAc6S
Outline: as §1

[7] = molecular target: Fuc(a1-2)Gal(b1-4)[Fuc(a1-3)]GlcNAc
Outline: as §1

[8] = molecular target: Fuc(a1-2)Gal(b1-4)[Fuc(a1-3)]GlcNAc(b1-2)Man(a1-3)[Fuc(a1-2)Gal(b1-4)[Fuc(a1-3)]GlcNAc(b1-2)Man(a1-6)]Man(b1-4)GlcNAc(b1-4)[Fuc(a1-6)]GlcNAc
Outline: as §1

[9] = molecular target: Fuc(a1-2)Gal(b1-4)[Fuc(a1-3)]GlcNAc(b1-2)[Fuc(a1-2)Gal(b1-4)[Fuc(a1-3)]GlcNAc(b1-4)]Man(a1-3)[Fuc(a1-2)Gal(b1-4)[Fuc(a1-3)]GlcNAc(b1-2)Man(a1-6)]Man(b1-4)GlcNAc(b1-4)GlcNAc
Outline: as §1

[10] = molecular target: Fuc(a1-2)Gal(b1-4)[Fuc(a1-3)]GlcNAc(b1-3)Gal(b1-4)[Fuc(a1-3)]GlcNAc
Outline: as §1

[11] = molecular target: Fuc(a1-2)Gal(b1-4)[Fuc(a1-3)]GlcNAc(b1-3)Gal(b1-4)[Fuc(a1-3)]GlcNAc(b1-3)Gal(b1-4)[Fuc(a1-3)]GlcNAc
Outline: as §1

[12] = molecular target: Fuc(a1-2)Gal(b1-4)[Fuc(a1-3)]GlcNAc(b1-3)GalNAc
Outline: as §1

[13] = molecular target: Fuc(a1-2)Gal(b1-4)[Fuc(a1-3)]GlcNAc(b1-3)[Neu5Ac(a2-6)Gal(b1-4)GlcNAc(b1-6)]Gal(b1-4)Glc
Outline: as §1

[14] = molecular target: Fuc(a1-2)Gal3S(b1-4)GlcNAc
Outline: as §1

[15] = molecular target: Fuc(a1-2)Gal6S(b1-3)GlcNAc
Outline: as §1

[16] = molecular target: Fuc(a1-2)Gal6S(b1-3)GlcNAc6S
Outline: as §1

[17] = molecular target: Fuc(a1-2)Gal6S(b1-4)Glc
Outline: as §1

[18] = molecular target: Fuc(a1-2)Gal6S(b1-4)Glc6S
Outline: as §1

[19] = molecular target: Fuc(a1-2)[Gal(a1-3)]Gal
Outline: as §1

[20] = molecular target: Fuc(a1-2)[Gal(a1-3)]Gal(b1-3)GalNAc
Outline: as §1

[21] = molecular target: Fuc(a1-2)[Gal(a1-3)]Gal(b1-3)GalNAc(b1-3)Gal(a1-4)Gal(b1-4)Glc
Outline: as §1

[22] = molecular target: Fuc(a1-2)[Gal(a1-3)]Gal(b1-3)GlcNAc
Outline: as §1

[23] = molecular target: Fuc(a1-2)[Gal(a1-3)]Gal(b1-3)GlcNAc(b1-2)Man(a1-3)[Fuc(a1-2)[Gal(a1-3)]Gal(b1-3)GlcNAc(b1-2)Man(a1-6)]Man(b1-4)GlcNAc(b1-4)GlcNAc
Outline: as §1

[24] = molecular target: Fuc(a1-2)[Gal(a1-3)]Gal(b1-3)GlcNAc(b1-2)Man(a1-3)[Fuc(a1-2)[Gal(a1-3)]Gal(b1-3)GlcNAc(b1-2)Man(a1-6)]Man(b1-4)GlcNAc(b1-4)[Fuc(a1-6)]GlcNAc
Outline: as §1

[25] = molecular target: Fuc(a1-2)[Gal(a1-3)]Gal(b1-3)GlcNAc(b1-3)GalNAc
Outline: as §1

[26] = molecular target: Fuc(a1-2)[Gal(a1-3)]Gal(b1-3)GlcNAc(b1-6)GalNAc
Outline: as §1

[27] = molecular target: Fuc(a1-2)[Gal(a1-3)]Gal(b1-4)Glc
Outline: as §1

[28] = molecular target: Fuc(a1-2)[Gal(a1-3)]Gal(b1-4)GlcNAc
Outline: as §1

[29] = molecular target: Fuc(a1-2)[Gal(a1-3)]Gal(b1-4)GlcNAc(b1-2)Man
Outline: as §1

[30] = molecular target: Fuc(a1-2)[Gal(a1-3)]Gal(b1-4)GlcNAc(b1-2)Man(a1-3)[Fuc(a1-2)[Gal(a1-3)]Gal(b1-4)GlcNAc(b1-2)Man(a1-6)]Man(b1-4)GlcNAc(b1-4)GlcNAc
Outline: as §1

B1: PX15618A-bth-503-24-503 (Bacteroides thetaiotaomicron) (protein)
chain: NKSEDKLSGDDFWAQGNETNAEAFLLSIYNSFRNATMSQRPFLTYSGDMRCAPITAYSTGDKYVAYLANNDMGELRNTYPDDARGGLIMQWDVFYTAIQDANILLAEIDKVPGMDELKRSRFKAEAIFMRSLSYFFIVRAFGDVPYYTNAYNEAPLPRTNMVIVLQNCLADLQPLLDDDPGAEVLPWSYSSYSSKGIRASRGSVIALMMHINLWLVQFDAQNKEQYYRNVVSLGEELERNNGAYSLLDINRSSVIFAGGSDEGLFEIAQNINFNEIFMMNAKFSDNVSYSCLNKSMPLFCYSGDYLMTLFPMYEDDARKELWFDEKIYSTSVSSSAPKEIKKFWNIDTYGNGTITSNSGNQIVFRYAGALLLYAEALAALGTNDTKACELLNRVRNRAHASEINTSGSELMDAIFWERCRELIGEGHYYYDLVRTGKVYNRNYCMNPMTRTNFNVGAWTWPIHRNALKNNTQIGLNLFWE
glycan array binding signal (z-score) [1]: -0.13 | glycan array binding signal (z-score) [2]: -0.013 | glycan array binding signal (z-score) [3]: -0.488 | glycan array binding signal (z-score) [4]: -0.143 | glycan array binding signal (z-score) [5]: 0.147 | glycan array binding signal (z-score) [6]: -0.172 | glycan array binding signal (z-score) [7]: -0.233 | glycan array binding signal (z-score) [8]: 0.352 | glycan array binding signal (z-score) [9]: 0.007 | glycan array binding signal (z-score) [10]: 0.413 | glycan array binding signal (z-score) [11]: 0.015 | glycan array binding signal (z-score) [12]: -0.411 | glycan array binding signal (z-score) [13]: -0.1 | glycan array binding signal (z-score) [14]: -0.301 | glycan array binding signal (z-score) [15]: 0.13 | glycan array binding signal (z-score) [16]: -0.016 | glycan array binding signal (z-score) [17]: 2.77 | glycan array binding signal (z-score) [18]: 0.888 | glycan array binding signal (z-score) [19]: 0.989 | glycan array binding signal (z-score) [20]: -0.377 | glycan array binding signal (z-score) [21]: 0.64 | glycan array binding signal (z-score) [22]: 0.041 | glycan array binding signal (z-score) [23]: -0.62 | glycan array binding signal (z-score) [24]: 0.553 | glycan array binding signal (z-score) [25]: -0.259 | glycan array binding signal (z-score) [26]: 0.076 | glycan array binding signal (z-score) [27]: -0.584 | glycan array binding signal (z-score) [28]: -0.343 | glycan array binding signal (z-score) [29]: 0.353 | glycan array binding signal (z-score) [30]: 0.482
